{
  "sequences": {"note": "The chains behind the UniProt entries cited, without tags or fusion partners. Residues count along the entry.", "UniProt P10923, residues 17-294": "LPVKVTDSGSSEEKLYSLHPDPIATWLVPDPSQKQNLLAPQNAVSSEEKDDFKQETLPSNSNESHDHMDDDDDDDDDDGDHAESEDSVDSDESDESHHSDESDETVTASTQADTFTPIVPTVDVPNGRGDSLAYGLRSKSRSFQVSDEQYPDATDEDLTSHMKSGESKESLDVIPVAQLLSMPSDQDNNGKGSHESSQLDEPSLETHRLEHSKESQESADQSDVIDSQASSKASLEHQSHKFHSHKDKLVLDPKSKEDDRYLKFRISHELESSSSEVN", "UniProt Q86WV6": "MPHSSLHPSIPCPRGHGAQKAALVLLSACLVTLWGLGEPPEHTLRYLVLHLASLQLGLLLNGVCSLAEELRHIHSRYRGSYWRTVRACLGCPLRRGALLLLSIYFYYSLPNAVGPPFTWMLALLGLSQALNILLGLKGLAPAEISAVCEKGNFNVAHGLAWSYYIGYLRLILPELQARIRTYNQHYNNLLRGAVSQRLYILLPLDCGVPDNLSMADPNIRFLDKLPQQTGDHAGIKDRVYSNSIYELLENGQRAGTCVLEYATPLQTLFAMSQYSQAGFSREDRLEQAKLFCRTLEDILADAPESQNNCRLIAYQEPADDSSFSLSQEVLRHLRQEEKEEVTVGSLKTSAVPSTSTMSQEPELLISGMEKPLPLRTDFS", "UniProt Q7Z434": "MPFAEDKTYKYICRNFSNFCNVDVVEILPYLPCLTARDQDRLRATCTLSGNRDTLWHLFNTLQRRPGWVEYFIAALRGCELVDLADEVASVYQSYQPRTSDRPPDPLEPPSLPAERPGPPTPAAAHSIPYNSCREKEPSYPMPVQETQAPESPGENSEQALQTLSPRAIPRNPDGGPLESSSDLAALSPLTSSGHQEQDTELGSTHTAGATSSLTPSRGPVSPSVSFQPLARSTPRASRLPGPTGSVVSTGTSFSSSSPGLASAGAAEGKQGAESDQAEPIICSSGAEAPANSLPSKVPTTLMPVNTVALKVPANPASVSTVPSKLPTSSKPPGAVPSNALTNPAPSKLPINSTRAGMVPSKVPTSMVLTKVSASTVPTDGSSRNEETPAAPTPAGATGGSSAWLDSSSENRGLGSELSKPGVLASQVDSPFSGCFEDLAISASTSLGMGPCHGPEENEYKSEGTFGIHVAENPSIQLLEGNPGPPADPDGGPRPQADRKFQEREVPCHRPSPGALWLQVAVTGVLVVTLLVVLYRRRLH"},
  "source": "paper PMC4824456",
  "molecules": {"B1": {"name": "endogenous IRF3 of mouse peritoneal macrophages, P70671 1-419 (protein)", "chain": "METPKPRILPWLVSQLDLGQLEGVAWLDESRTRFRIPWKHGLRQDAQMADFGIFQAWAEASGAYTPGKDKPDVSTWKRNFRSALNRKEVLRLAADNSKDPYDPHKVYEFVTPGARDFVHLGASPDTNGKSSLPHSQENLPKLFDGLILGPLKDEGSSDLAIVSDPSQQLPSPNVNNFLNPAPQENPLKQLLAEEQWEFEVTAFYRGRQVFQQTLFCPGGLRLVGSTADMTLPWQPVTLPDPEGFLTDKLVKEYVGQVLKGLGNGLALWQAGQCLWAQRLGHSHAFWALGEELLPDSGRGPDGEVHKDKDGAVFDLRPFVADLIAFMEGSGHSPRYTLWFCMGEMWPQDQPWVKRLVMVKVVPTCLKELLEMAREGGASSLKTVDLHISNSQPISLTSDQYKAYLQDLVEDMDFQATGNI"}, "B2": {"name": "endogenous TRAF3 of mouse peritoneal macrophages (protein, UniProt Q60803 1-567)", "chain": "MESSKKMDAAGTLQPNPPLKLQPDRGAGSVLVPEQGGYKEKFVKTVEDKYKCEKCRLVLCNPKQTECGHRFCESCMAALLSSSSPKCTACQESIIKDKVFKDNCCKREILALQVYCRNEGRGCAEQLTLGHLLVHLKNECQFEELPCLRADCKEKVLRKDLRDHVEKACKYREATCSHCKSQVPMIKLQKHEDTDCPCVVVSCPHKCSVQTLLRSELSAHLSECVNAPSTCSFKRYGCVFQGTNQQIKAHEASSAVQHVNLLKEWSNSLEKKVSLLQNESVEKNKSIQSLHNQICSFEIEIERQKEMLRNNESKILHLQRVIDSQAEKLKELDKEIRPFRQNWEEADSMKSSVESLQNRVTELESVDKSAGQAARNTGLLESQLSRHDQMLSVHDIRLADMDLRFQVLETASYNGVLIWKIRDYKRRKQEAVMGKTLSLYSQPFYTGYFGYKMCARVYLNGDGMGKGTHLSLFFVIMRGEYDALLPWPFKQKVTLMLMDQGSSRRHLGDAFKPDPNSSSFKKPTGEMNIASGCPVFVAQTVLENGTYIKDDTIFIKVIVDTSDLPDP"}, "B3": {"name": "HA-TBK1 (TANK-binding kinase 1) (enzyme, UniProt Q9UHD2 1-729)", "chain": "MQSTSNHLWLLSDILGQGATANVFRGRHKKTGDLFAIKVFNNISFLRPVDVQMREFEVLKKLNHKNIVKLFAIEEETTTRHKVLIMEFCPCGSLYTVLEEPSNAYGLPESEFLIVLRDVVGGMNHLRENGIVHRDIKPGNIMRVIGEDGQSVYKLTDFGAARELEDDEQFVSLYGTEEYLHPDMYERAVLRKDHQKKYGATVDLWSIGVTFYHAATGSLPFRPFEGPRRNKEVMYKIITGKPSGAISGVQKAENGPIDWSGDMPVSCSLSRGLQVLLTPVLANILEADQEKCWGFDQFFAETSDILHRMVIHVFSLQQMTAHKIYIHSYNTATIFHELVYKQTKIISSNQELIYEGRRLVLEPGRLAQHFPKTTEENPIFVVSREPLNTIGLIYEKISLPKVHPRYDLDGDASMAKAITGVVCYACRIASTLLLYQELMRKGIRWLIELIKDDYNETVHKKTEVVITLDFCIRNIEKTVKVYEKLMKINLEAAELGEISDIHTKLLRLSSSQGTIETSLQDIDSRLSPGGSLADAWAHQEGTHPKDRNVEKLQVLLNCMTEIYYQFKKDKAERRLAYNEEQIHKFDKQKLYYHATKAMTHFTDECVKKYEAFLNKSEEWIRKMLHLRKQLLSLTNQCFDIEEEVSKYQEYTNELQETLPQKMFTASSGIKHTMTPIYPSSNTLVEMTLGMKKLKEEMEGVVKELAENNHILERFGSLTMDGGLRNVDCL"}, "B4": {"name": "Myc-TRAF3-Mut (Y441A, Q443A) (protein, UniProt Q13114 1-568)", "chain": "MESSKKMDSPGALQTNPPLKLHTDRSAGTPVFVPEQGGYKEKFVKTVEDKYKCEKCHLVLCSPKQTECGHRFCESCMAALLSSSSPKCTACQESIVKDKVFKDNCCKREILALQIYCRNESRGCAEQLMLGHLLVHLKNDCHFEELPCVRPDCKEKVLRKDLRDHVEKACKYREATCSHCKSQVPMIALQKHEDTDCPCVVVSCPHKCSVQTLLRSELSAHLSECVNAPSTCSFKRYGCVFQGTNQQIKAHEASSAVQHVNLLKEWSNSLEKKVSLLQNESVEKNKSIQSLHNQICSFEIEIERQKEMLRNNESKILHLQRVIDSQAEKLKELDKEIRPFRQNWEEADSMKSSVESLQNRVTELESVDKSAGQVARNTGLLESQLSRHDQMLSVHDIRLADMDLRFQVLETASYNGVLIWKIRDYKRRKQEAVMGKTLSLASAPFYTGYFGYKMCARVYLNGDGMGKGTHLSLFFVIMRGEYDALLPWPFKQKVTLMLMDQGSSRRHLGDAFKPDPNSSSFKKPTGEMNIASGCPVFVAQTVLENGTYIKDDTIFIKVIVDTSDLPDP"}},
  "key": {"[1]": {"molecular_target": "Flag-iOPN (intracellular form of osteopontin) (mouse) (UniProt P10923)", "assay": "co-IP"}, "[2]": {"molecular_target": "T1, endogenous IRF3 of mouse peritoneal macrophages (mouse (endogenous in peritoneal macrophages)), P70671", "T1 chain": "B1 chain", "assay": "native gel or EMSA", "settings": "remark: other sources report otherwise"}, "[3]": {"molecular_target": "endogenous OPN (osteopontin) of mouse peritoneal macrophages (mouse (endogenous in peritoneal macrophages)) (UniProt P10923)", "assay": "co-IP"}},
  "note": "No constants are given. Whether binding was seen depends on the method and setting. For part of these data: Binding seen in cells or lysates may run through a third protein. Some results given as binding are weak or reduced against the parent protein; the word gives no strength. For part of these data: Sequences can lack the tags named with a protein.",
  "data": [
    {"molecule": "Myc-STING (stimulator of interferon genes protein) (from UniProt Q86WV6 1-379)", "values": [
      {"measurement": "binding", "setting": "[1]", "value": "no binding"}
    ]},
    {"molecule": "HA-MAVS (mitochondrial antiviral signaling protein) (from UniProt Q7Z434 1-540)", "values": [
      {"measurement": "binding", "setting": "[1]", "value": "no binding"}
    ]},
    {"molecule": "B1", "values": [
      {"measurement": "binding", "setting": "[2]", "value": "binds"}
    ]},
    {"molecule": "B2", "values": [
      {"measurement": "binding", "setting": "[3]", "value": "binds"}
    ]},
    {"molecule": "B3", "values": [
      {"measurement": "binding", "setting": "[1]", "value": "no binding"}
    ]},
    {"molecule": "B4", "values": [
      {"measurement": "binding", "setting": "[1]", "value": "no binding"}
    ]}
  ]
}
